We go through one molecule from patent publication US9844656B2, “Localization of agents at a target site with a composition and an energy source” (The Regents of the University of California, priority 2010, dated 2017).

This assay concerns Met-1 tumors. Conditions: ~0.9 mg rapamycin/kg ip three times per week.

As for `CO[C@H]1C[C@@H]2CC[C@@H](C)[C@@](O)(O2)C(=O)C(=O)N2CCCC[C@H]2C(=O)O[C@H]([C@H](C)C[C@@H]2CC[C@@H](O)[C@H](OC)C2)CC(=O)[C@H](C)/C=C(\C)[C@@H](O)[C@@H](OC)C(=O)[C@H](C)C[C@H](C)/C=C/C=C/C=C/1C` [rapamycin, Rapamycin], the survival post-treatment is 24 days.
